# Assay results taken from PubChem BioAssay AID504832 (National Center for Advancing Translational Sciences (NCATS), 2011).
# The campaign covered roughly 310,000 compounds. About 18,000 (5.8%) were called active. Inconclusive means that the source gave no clear call. Such entries were picked first, then a sample of the others. The call rests on the fitted dose curve; in most records, active means well fitted inhibition curve with a large enough effect; inconclusive means small, poorly fitted or top-dose-only effect, or another doubt; inactive means no such curve, though single readings can be large or run the other way. Potencies of inconclusive entries are left out as doubtful fits.
# Assay: Primary qHTS for delayed death inhibitors of the malarial parasite plastid, 48 hour incubation
# Conditions: P. falciparum luciferase growth in erythrocytes; series mostly up to 28.7 µM; activity change, negative = inhibition: at the top concentration
# Method in brief: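 Luciferase-expressing parasites in RBCs, 2% Hct / 0.1% parasitemia final; RPMI 1640 + 0.5% Albumax; 37 C, 5% CO2, one generation; luminescence read-out, lower signal = inhibition.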
# On the % scale 0 is the no-effect control and ±100 the full control effect; potency means the concentration at half of the fitted maximal effect; tags describe the fitted curve by direction and shape.
SMILES,"activity change, negative = inhibition",Potency
CCCn1c(SCC(=O)NCc2ccc3c(c2)OCO3)n[nH]c1=O,inactive: -28%,
COc1ccc(C2/C=C\CN(CC(C)C)CC(=O)N2Cc2ccc(F)cc2)cc1 (configuration not stated),,"inconclusive [inhibitor, single point]"
O=C(N/N=C/c1cc2c(cc1Cl)OCO2)c1cc(-c2ccccc2)n[nH]1,,"inconclusive [inhibitor, partial curve]"
Cc1cc(C(=O)N/N=C/c2sc(N3CCOCC3)nc2-c2ccccc2)c(C)o1,,"inconclusive [inhibitor, partial curve]"
COc1cc(S(=O)(=O)N2CCN3CCCC3C2)ccc1-n1cnnn1 (configuration not stated),inactive: 7.65%,
O=[N+]([O-])c1ccc(N2CCNCC2)cc1NC1CC1,,"inconclusive [inhibitor, single point]"
Cn1c(=O)c2c(ncn2CC(COCc2ccccc2Cl)OCc2ccccc2Cl)n(C)c1=O (configuration not stated),,active: 8.28 µM
Cc1ccc(S(=O)(=O)NC(=O)c2cc(C)n(-c3ccc(N(C)C)cc3)c2C)cc1,,"inconclusive [inhibitor, single point]"
N#CCN1CCCC(C(N)=O)C1 (configuration not stated),,"inconclusive [inhibitor, partial curve, poor fit]"
COc1cc2c(cc1OC)CN(C(C)C(=O)Nc1cccc(S(=O)(=O)N3CCOCC3)c1)CC2 (configuration not stated),,"inconclusive [inhibitor, partial curve]"
c1ccc(Nc2nc3ccccc3n3nnnc23)cc1,,"inconclusive [inhibitor, single point]"
CC(NC(=O)CSc1ncccc1C(=O)O)C1CC2CCC1C2 (configuration not stated),inactive: -0.927%,
CCCC(=O)Nc1cccc(Oc2ccc3c(c2)C(=O)NC3=O)c1,inactive: 29.9%,
CCCc1ccc2oc(C(=O)N(Cc3ccncc3)CC3CCCO3)c(C)c2c1 (configuration not stated),,active: 9.28 µM
Cc1cc2[nH]c(=O)c(=O)[nH]c2cc1S(=O)(=O)N1CCN(c2cccc(Cl)c2)CC1,,"inconclusive [inhibitor, partial curve, poor fit]"
Cc1cccn2c(=O)c(/C=C(\C#N)C(=O)NCc3ccco3)c(N3CCOCC3)nc12,,"inconclusive [inhibitor, single point]"
O=C(Nc1ccncc1)c1ccc(Cl)c(S(=O)(=O)N2CCc3ccccc32)c1,,active: 3.29 µM
CCCCN(CC)CCNC(=O)CCC(=O)Nc1ccc2nc(N3CCN(C)CC3)cc(C)c2c1,,"inconclusive [inhibitor, single point]"
CCOc1ccccc1CNC(=O)CCNC(=O)Cn1ccc2ccccc2c1=O,inactive: 11.1%,
COc1ccc(-n2c(=O)c3c4c(sc3n(CC(N)=O)c2=O)CCCCC4)cc1,,"inconclusive [inhibitor, partial curve, poor fit]"
FC(F)(F)c1cc(-c2ccco2)nc(NCc2ccco2)n1,,"inconclusive [inhibitor, single point]"

SMILES,"activity change, negative = inhibition",Potency
CC(C)c1[nH]nc2c1C(C1C=CCCC1)C(C#N)=C(N)O2 (configuration not stated),,"inconclusive [inhibitor, partial curve, poor fit]"
O=C(CNC(=O)c1ccco1)N=Nc1c(O)[nH]c2ccc([N+](=O)[O-])cc12,inactive: 21.7%,
CN(C)CCCNC(=O)/C(=C/c1ccc(-c2ccc([N+](=O)[O-])cc2)o1)NC(=O)c1ccccc1,,"inconclusive [inhibitor, single point]"
CN(/N=C/c1cc(Cl)ccc1O)C1=NS(=O)(=O)c2ccccc21,,"inconclusive [inhibitor, single point]"
COC(=O)c1ccc(CSC(=N)N)o1,,"inconclusive [inhibitor, single point]"
COc1ccc(C2=NOC3(CC(=O)N(c4ccc(F)cc4)C3=O)C2)cc1 (configuration not stated),,"inconclusive [inhibitor, partial curve, poor fit]"
COc1ccc(-c2csc(NC(=O)Cc3cc(OC)c(OC)c(OC)c3)n2)cc1OC,,"inconclusive [inhibitor, partial curve]"
Cc1ccc(C(=O)NC2CC3CCCC(C2)N3C(=S)NCc2ccco2)cc1 (configuration not stated),,active: 10.4 µM
CN1CCN(c2nc3c(c(=O)[nH]c(=O)n3C)n2CC(N)=O)CC1,,"inconclusive [inhibitor, partial curve, poor fit]"
CC(C)CN(C(=O)CSc1nnc2c(Cl)cc(C(F)(F)F)cn12)C1CCS(=O)(=O)C1 (configuration not stated),,"inconclusive [inhibitor, single point]"
O=C(CCSc1nc(-c2ccco2)cc(C(F)(F)F)n1)NCc1cccs1,,"inconclusive [inhibitor, single point]"
O=C(Nc1ncccc1O)c1ccc(Cl)c(S(=O)(=O)N2CCCCC2)c1,,"inconclusive [inhibitor, partial curve, poor fit]"
CC(C)CNC(=O)/C=C/c1cccs1,inactive: 62.3%,
Cc1ccc2cc(C3CC(c4ccco4)=NN3S(C)(=O)=O)c(Cl)nc2c1 (configuration not stated),,"inconclusive [inhibitor, partial curve, poor fit]"
CCCCCCC(=O)Nc1nc(C)c(-c2csc(Nc3cc(Cl)ccc3C)n2)s1,,"inconclusive [inhibitor, full curve]"
O=C1N[C@@H](Cc2ccccc2)C(=O)N2[C@H]1C[C@]1(Br)c3ccccc3N(S(=O)(=O)c3ccccc3)[C@H]21,,"inconclusive [inhibitor, single point]"
Cc1ccc(-c2csc3ncnc(N4CCN(c5ccccc5O)CC4)c23)cc1,,active: 9.28 µM
CC(C)(C)Nc1nc(SCC(=O)Nc2ccccc2Cl)nc(N2CCOCC2)n1,,"inconclusive [inhibitor, single point]"
Cc1ccc(C)c(S(=O)(=O)N2CCCC2CNC(=O)C(=O)NC2CCCC2)c1 (configuration not stated),,"inconclusive [inhibitor, single point]"
COCC(=O)NC1CC2CCC(C1)N2C(=S)Nc1ccccc1C(=O)OC (configuration not stated),inactive: 48.6%,
Cc1ccc(S(=O)(=O)N(C)C)cc1NC(=O)CN1c2cccc3cccc(c23)S1(=O)=O,,active: 13.1 µM
